The results in this text go back to PMC12136788.

This is one part of the list.

T1: UNK ZnF1-3 (human, UniProt Q9C0B0 31-174)
T1 sequence: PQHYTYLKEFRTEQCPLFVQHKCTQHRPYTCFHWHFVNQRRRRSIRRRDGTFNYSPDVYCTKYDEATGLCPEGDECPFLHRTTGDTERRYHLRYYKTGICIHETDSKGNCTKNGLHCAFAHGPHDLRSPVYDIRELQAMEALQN

B1: chrX:71549400:71549401:+_ENSMUSG00000019087_ENSMUST00000019231|mus_hu|mus_mus_mus_hu_False|18_38 (ssRNA)
RNA: GGGAGUUCUACAGUCCGACGAUCGCAGUAGGAAGAGGGAAGCUCUUCAGUCCAGUGCGCUGCAGGGUGGGAAAGCAACAACACGGACACCGUCCCACCUCAAUUCCCCCCACUGGCAUGUCACACAACAAUCUGGGUCAAAGACAACAGAGGAUUGAGCAUCA
B2: chr1:220315150:220315151:+_ENSG00000067704_ENST00000302637|hu_hu|FALSE|FALSE (ssRNA)
RNA: GGGAGUUCUACAGUCCGACGAUCAGCCAGGUGAGGAAGAAUGGGAGCAAAAGAACGAACUAUUACAUCCAAAAUUUCAACUAAUGCAGUCUGACAAGAGCGUCGUUUGGGGUCAUUUUCCUUUUCACAAUAGAGCCUAUCUUUCAACAGAGGAUUGAGCAUCA
B3: chr18:35731935:35731936:+_ENSMUSG00000037236_ENSMUST00000166793|perfect_dup|FALSE|FALSE (ssRNA)
RNA: GGGAGUUCUACAGUCCGACGAUCAGGGAGUGGACCUCUACUUCCAAUGUUAAAUAUAGACUGCAAAUUAUGGGAAGAAGUACUAGCAGAAGACAGUGCACUAUGAGCUCCUUGUUGAUUCAAUGAAGAACUCAUUCCAAGAUUCAACAGAGGAUUGAGCAUCA
B4: chr14:89338683:89338684:+_ENSG00000165533_ENST00000346301|hu_hu|hu_hu_hu_mus_False|68_98 (ssRNA)
RNA: GGGAGUUCUACAGUCCGACGAUCGUGGUUGUUGUGGACCAGAGCCAGCCUGAAGCAUUGGUGGGCCAAAUUUGUAUCUCCGAUUCCCACAGCUAUGUGCCCCAGGUUGUACCAGACAUCAGCUGCCUCUUCUUCAUUUUCAGCCAACAGAGGAUUGAGCAUCA
B5: chr1:36558744:36558745:+_ENSG00000116863_ENST00000373178|hu_mus|FALSE|FALSE (ssRNA)
RNA: GGGAGUUCUACAGUCCGACGAUCUAUGGUGUCUGUGUCCCCACCAAGUGAGAUGGAGUAGAUGAGAGUCCUCUGGAGACUGUUGAAGGUGGAGGGGAUCUCAGGGUGAGGCUCCAUGCAGCGCAGGAAGCAGUAGAUGGCGGUCAACAGAGGAUUGAGCAUCA
B6: chr9:111175386:111175387:+_ENSMUSG00000046785_ENSMUST00000060711|mus_hu|FALSE|FALSE (ssRNA)
RNA: GGGAGUUCUACAGUCCGACGAUCUUCCGUUAGUAAAGUCUGAAAUUCAGGUCGCCUAACGCCUCUGGUCUUAAUCAAAACUAUCCAUUCGGAUAUGGUAUUUAUGAUCUGAUUAACAUCUACAUCAUAGGAGCUCAACAGUUCCAACAGAGGAUUGAGCAUCA
B7: chr4:38126685:38126686:+_ENSG00000065882_ENST00000510573|hu_mus|motif|central (ssRNA)
RNA: GGGAGUUCUACAGUCCGACGAUCGGUCUUCUCCAUCUGCACCAGGCCCAGGUUGGGGAGUGUGUUCUUUAUGAAGUCCACGGUGGUUUCCAGGUUCUCAUGCUGUAGAAUCAAGGGCUUAUGGCUCCCCAAAAGACUUAAAGCCAACAGAGGAUUGAGCAUCA
B8: chr3:119456006:119456007:-_ENSMUSG00000028134_ENSMUST00000029780|mus_hu|motif|central (ssRNA)
RNA: GGGAGUUCUACAGUCCGACGAUCAAUAUGAAGUACACGAGAAGGAGCACCAUCCAUUUUAUCUUCUCCUUUAAAUUUUUUACGGUCAUUACCAUUGGCUGUAACUACCAUGCUGCUCAUAUUAGAGUUCGGACUACUGAGAACCAACAGAGGAUUGAGCAUCA
B9: chr16:45382771:45382772:-_ENSMUSG00000022661_ENSMUST00000163230|mus_mus|mus_mus_mus_hu_True|78_108 (ssRNA)
RNA: GGGAGUUCUACAGUCCGACGAUCCUGAGUGUUAUUGUAAGACAAAUGGACAGGGAGAGCAUGCUUUUCAAAAAAUGUGAGCUAUUGUCUAAGACUAACAAUAUUUAUCUAGCUAUAAAAAUAAGUUAAAUGAAUAAGUUAAGACAACAGAGGAUUGAGCAUCA
B10: chr10:126435856:126435857:+_ENSMUSG00000078429_ENSMUST00000105256|mus_mus|motif|central (ssRNA)
RNA: GGGAGUUCUACAGUCCGACGAUCAGUGGAAACCCUUACCUGGCCCUUUAUCAAACUGGUCCUGUGUCCAAAGCUCCCCCGGUAAGAGGGACAGGAACGUCAGGCUUUUGAUGCGAAGCCCAAUCAGACACACACUGUGUCCCUCAACAGAGGAUUGAGCAUCA
B11: chr9:72849539:72849540:+_ENSMUSG00000034563_ENSMUST00000085350|mus_mus|motif|central (ssRNA)
RNA: GGGAGUUCUACAGUCCGACGAUCGUUCCCCAUUUCUUCCAGCUUAGGUGGUUCAAGUGUAACAAUAUCCGAAUCGUCACGGGUAGUUCCGAAAUAGACAUUGUCUUCAGGGGAAGGUGCUUCCUCCACCUCAGCUGCUGACUUCAACAGAGGAUUGAGCAUCA
B12: 212459462_212459582_644_3pUTR_ENSG00000066027_ENST00000261461|human|control|control (ssRNA)
RNA: GGGAGUUCUACAGUCCGACGAUCACUGCGACGAGCCCUGGGAGCGCUUCUGCCUCUGCGCCUUGCGGACCGAUUUCCGGGUGAAGCCGUCCACUUUCUCCGAGGCCGAGAUGGCGGCGCUGGCAGCCCCCGCCGGCGGCGACGCAACAGAGGAUUGAGCAUCA
B13: chrX:71549762:71549763:+_ENSMUSG00000019087_ENSMUST00000019231|mus_mus|mus_mus_mus_hu_False|8_108 (ssRNA)
RNA: GGGAGUUCUACAGUCCGACGAUCAAAGUGUACCACUUCUUAUUGUUAGCACAACAUCACCAGAAAACGAUAACGACAGCCAAGCAGGACAGACAGUUAAGUAGUACUUCCACACUCCCAAACUCAGAGGAACCUCAAACCUUACAACAGAGGAUUGAGCAUCA
B14: chr4:148551591:148551592:-_ENSMUSG00000063077_ENSMUST00000060537|mus_hu|mus_mus_mus_hu_False|68_68 (ssRNA)
RNA: GGGAGUUCUACAGUCCGACGAUCACCUGACAAAAUUAAAUAUCCCUGUAAAUUAGACAAUAAGCAGCAGGUAACAAAGUCUUUGCUUUGGAAUAUGUGCCAGGAAAAGUCAUCUUGUUUUUAGAUCUCAAGAGACAGUUCACACAACAGAGGAUUGAGCAUCA
B15: chr1:46159212:46159213:+_ENSG00000159596_ENST00000372025|hu_mus|hu_hu_hu_mus_True|58_108 (ssRNA)
RNA: GGGAGUUCUACAGUCCGACGAUCUCUGAUCCCACCCAAGAAAGCUAGGAAACCGGCUCCAUAAGCCAUCUGAGUGAAAGCUAAUAUGGGGAUAUAAGACUUUGUUAUUACCAUGAGAAGUGGGGGAGCAGUAAAGGGGAUUAACAACAGAGGAUUGAGCAUCA
B16: chr5:136384420:136384421:-_ENSMUSG00000051391_ENSMUST00000055808|mus_hu|FALSE|FALSE (ssRNA)
RNA: GGGAGUUCUACAGUCCGACGAUCGUACGACAGCUACAUAAUGACUCACAUUCAUGAUAUUCCAUCACUGAGGAAACUGCUAAAGAUGGUCCGUGUGUGAAAUAAUUCCUUAGAGAAACACGGAGCUGGAAAAAUAAUCACUGACAACAGAGGAUUGAGCAUCA
B17: chr17:56552419:56552420:-_ENSMUSG00000013236_ENSMUST00000086828|mus_mus|mus_mus_mus_hu_False|38_108 (ssRNA)
RNA: GGGAGUUCUACAGUCCGACGAUCAAAGUUUUUUUCUUUUAAAAAAAAUGAAAUGUCACGGGAUACAGUUACACUGAGAGUUUUAAAAGAAAGCUGGAAAAAAAAUGCAGCCCAGUGUCCCCAGGCUGCAGAGCGGGGAGGAGCCAACAGAGGAUUGAGCAUCA
B18: 21793098_21796719_1197_3pUTR_ENSMUSG00000028248_ENSMUST00000098238|mouse|control|control (ssRNA)
RNA: GGGAGUUCUACAGUCCGACGAUCUUCUUCAUCUGUGACGUCCAGGAGAAUUUCAGUUAGAAGCAUCUUUGUCAGCAACAUCAUUUGGUACUCCUUCUCCUCUUCCGUCAUCUCUGGUUCACUGUGCUCUUCUUGGGGAGCUGGCAACAGAGGAUUGAGCAUCA
B19: chr1:224612315:224612316:-_ENSG00000162923_ENST00000295024|hu_hu|FALSE|FALSE (ssRNA)
RNA: GGGAGUUCUACAGUCCGACGAUCCGUCAAUUCACAGCGUAGAACUUGAAGUGCCUCCAGGACCUUGCCAUCCUCCAGGUAUUCUAGGUACUUCUGCUGCAGCAGCAAAAACUUCAUCCUCACAAUUAUUCCCAACAACGUUUGCAACAGAGGAUUGAGCAUCA
B20: chr15:78454051:78454052:+_ENSG00000166411_ENST00000558554|hu_hu|FALSE|FALSE (ssRNA)
RNA: GGGAGUUCUACAGUCCGACGAUCAUGCUCAAUUCCACUGUAUUCUCCUUCUGUGUUCUCUCGAAUGGUCACAAUAUUUACAUCGGUGUAAGGGGUUUUAUAGCCUUUCAAGCCCAUCUUGUUCUUAUCCAUGGACUCUUUAGCCAACAGAGGAUUGAGCAUCA
B21: chr2:198365819:198365820:+_ENSG00000115541_ENST00000409468|hu_hu|FALSE|FALSE (ssRNA)
RNA: GGGAGUUCUACAGUCCGACGAUCAGUUUCAGCAGCACUCCUUUCAACCAAUACUCGGUCAAAGAGUGGAAGAAACUUUCUAAACGCUUGUCCUGCCAUUACUCCCUCCGCCUCAGACUCGUACUCUGCUCUAGUGUAGCGCCGCAACAGAGGAUUGAGCAUCA
B22: chrX:131284163:131284164:-_ENSMUSG00000050394_ENSMUST00000052431|mus_hu|motif|central (ssRNA)
RNA: GGGAGUUCUACAGUCCGACGAUCGGGGCUCGUGUUUCUAGCCAUUGAGAGGCUGGCCAAAUGGCUAUUGAUAUCCUGGCGGAAUGGAAAGCCCGCAUCCUUGGGCUCGGCAAACAACAGUUUUCCCUGAAUGAAAAGACACUUCAACAGAGGAUUGAGCAUCA

In this assay the target is T1, UNK ZnF1-3. The assay is described as follows: nsRBNS (natural sequence RNA bind-n-seq); RBNS binding buffer (assumed for nsRBNS): 25 mM Tris pH 7.5, 150 mM KCl, 3 mM MgCl2, 0.01% Triton X-100, 500 ug/ml BSA, 20 U/ml SUPERase-In, 4 C; UNK is unkempt and MSI1 is Musashi-1; names of the RNAs are library labels; protein concentration not given here; high values mean tight binding.
Consider B1, for which the binding signal amounted to 1.15 enrichment R.
B2 returned a binding signal of 2.51 enrichment R.
B3: the binding signal came out at 1.13 enrichment R.
The molecule B4 returned a binding signal of 0.787 enrichment R.
Consider B5, for which the binding signal came to 1.02 enrichment R.
B6 returned a binding signal of 0.714 enrichment R.
As for B7, the figure is 0.931 enrichment R; as for B8, 2.54 enrichment R; as for B9, 2.14 enrichment R.
For B10, the binding signal was 0.733 enrichment R.
With B11, the binding signal is 0.712 enrichment R.
For the molecule B12, the binding signal was 0.745 enrichment R.
The figure for B13 is 1.69 enrichment R; for B14 it is 1.14 enrichment R.
B15 gave a binding signal of 1.34 enrichment R.
As for B16, the figure is 1.28 enrichment R.
In turn, B17 had a binding signal of 1.92 enrichment R.
The figure for B18 is 0.675 enrichment R; for B19 it is 0.855 enrichment R.
In the case of B20, the binding signal was determined as 0.577 enrichment R.
The figure for B21 is 1.03 enrichment R.
With B22, the binding signal amounted to 0.998 enrichment R.
